From the supplement of paper PMC12645437, “Orthogonal IMiD-Degron Pairs Induce Selective Protein Degradation in Cells” (ACS Chemical Biology, 2025)
This is one part of the list.

target: no compound (DMSO); test: log2 fold change of degron read counts, EGFP-low vs EGFP+ sorted cells; higher = lower degron-EGFP level without compound (poor expression or instability); conditions: compound: DMSO control; 18 h
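Note: jurkat cells carrying a lentiviral library of mutant zinc finger degrons fused to EGFP plus mCherry, mCherry+ cells FACS sorted, degron abundance counted by next-generation sequencing.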

Sequence	log2 fold change of degron read counts
LKCEICGFKCTQKGNLLRHIKL	-0.342
FQCEVCGAEFTQKGNLLRHIKL	-2.26
FACNQCGRTFTQKGNLLRHIKL	-0.584
FRCDQCGANFTQKGNLLRHIKL	-1.4
FRCDQCGAVFTQKGNLLRHIKL	-2.25
LLCPICGFWCTQKGNLLRHIKL	2.11
LICNQCGFRCTQKGNLLRHIKL	1.16
FVCEVCGATFTQKGNLLRHIKL	-1.89
FYCEICGAEFTQKGNLLRHIKL	-2.36
FMCNQCGHHFTQKGNLLRHIKL	-0.366
FNCNQCGARFTQKGNLLRHIKL	0.012
FFCEICGHTFTQKGNLLRHIKL	-0.924
FYCEICGREFTQKGNLLRHIKL	-1.52
FQCNVCGAMFTQKGNLLRHIKL	-1.27
